Test results from the supplement of paper PMC6531468.
The list shows a part of the results. These are enrichments in a pooled selection; single values are uncertain. Each score is taken over the longer molecules that contain the sequence shown.

molecular target: IMP3 full-length (UniProt O00425); experiment: 6-mer SELEX enrichment z-score vs GST control; IMP3 is the RNA-binding protein IGF2BP3; higher = more enriched by binding; details: construct: FL IMP3 (1-579); SELEX round: R4
Protocol: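 SELEX-seq with GST-tagged full-length IMP3 and an N40 RNA pool, round 4. Each 6-mer is scored as an enrichment z-score of sequence tags containing it, normalised to the matching GST SELEX round. RNA written as DNA (T = U).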

UniProt O00425, sequence (O00425 whole entry): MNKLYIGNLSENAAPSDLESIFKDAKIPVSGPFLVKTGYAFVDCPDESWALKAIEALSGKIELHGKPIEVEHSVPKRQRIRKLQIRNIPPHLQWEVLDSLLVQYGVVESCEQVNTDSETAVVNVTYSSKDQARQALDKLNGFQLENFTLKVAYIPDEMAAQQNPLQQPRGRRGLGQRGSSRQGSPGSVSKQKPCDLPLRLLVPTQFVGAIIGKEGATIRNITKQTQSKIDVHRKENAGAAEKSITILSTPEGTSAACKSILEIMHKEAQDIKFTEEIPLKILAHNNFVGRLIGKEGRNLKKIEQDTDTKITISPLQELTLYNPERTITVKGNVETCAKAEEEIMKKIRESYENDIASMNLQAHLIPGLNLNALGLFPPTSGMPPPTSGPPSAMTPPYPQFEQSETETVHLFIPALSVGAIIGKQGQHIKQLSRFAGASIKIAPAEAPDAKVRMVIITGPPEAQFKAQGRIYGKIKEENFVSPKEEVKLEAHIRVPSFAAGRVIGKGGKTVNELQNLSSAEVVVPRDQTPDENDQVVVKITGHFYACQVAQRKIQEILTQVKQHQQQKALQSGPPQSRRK

Row | Sequence | 6-mer SELEX enrichment z-score
1 | ACAGTA | 0.997
2 | ACCGTA | -0.751
3 | ACCGGA | -0.557
4 | GGCGTT | 0.105
5 | CGTGTT | -0.187
6 | CGATTA | -0.391
7 | CCACCG | -0.389
8 | CTAGCG | -0.889
9 | GAGATT | -0.131
10 | GGGGGG | 0.72
11 | CTCTTC | 0.101
12 | AGCTCA | 0.334
13 | ATAGAT | 0.309
14 | GGTCGC | 0.728
15 | GTTAGG | 0.255
16 | GTTGAG | -0.271
17 | CGTCCG | 0.393
18 | GTTGGA | -0.069
19 | ACACAA | 2.63
20 | TGCAAA | -0.454

Row | Sequence | 6-mer SELEX enrichment z-score
21 | GCGCCG | 0.691
22 | AAAGAG | -1.58
23 | GGTTAA | -0.257
24 | AGCCCA | -0.919
25 | TCGCCG | 0.306
26 | GTCATC | 0.798
27 | TTATGC | -0.164
28 | CTGGGC | 0.136
29 | GGTCCG | 0.642
30 | ACAGAT | 1.01
31 | TCAGAG | 0.41
32 | ATGAGC | -1.82
33 | CTAGAG | -0.635
34 | CACCGT | 0.368
35 | GCGATG | -0.25
36 | CTATAA | -0.211
37 | GAACCG | -1.13
38 | CCTTGC | -0.649
39 | GAAAGA | -1.28
40 | GTGGCG | 0.533
